# Test results reported in PubChem BioAssay AID927 (National Center for Advancing Translational Sciences (NCATS), 2007).
# In all, about 60,000 compounds went through this assay and about 65 (0.1%) were called active. The inconclusive results got no clear call from the source; some entries with a clear call stand among them for comparison. Calls follow the shape of the dose curve; as a rule, active = well fitted inhibition curve with a large enough effect; inconclusive = small, poorly fitted or top-dose-only effect; inactive = no such curve, though single readings can be large or run the other way. A potency beside an inconclusive call is a rough fit, not a confirmed value.
# Biological target: Ubiquitin carboxyl-terminal hydrolase 2 (Homo sapiens) (UniProt O75604)
# Assay: qHTS Assay for Inhibitors of Ubiquitin-specific Protease USP2a; also: nearly all actives have a fitted effect of over 60% in size
# Details: USP2a enzymatic assay; Potency: qHTS inhibition; series mostly up to 38.3 µM; activity change, negative = inhibition: at the top concentration
# From the text: NIH Molecular Libraries Screening Centers Network [MLSCN]
# NIH Chemical Genomics Center [NCGC]
# PI Name: Nicholson, Ben. Progenra Inc, Malvern, PA
# Homeostasis of cellular proteins is maintained through a combination of synthesis and degradation. The pathway that accounts for the majority of protein degradation is the ubiquitin-proteasomal pathway. Ubiquitin (Ub) is highly conserved in all cells and the generation of a multi-Ub chain typically targets proteins for degradation by the proteasome. However, ubiquitination is highly reversible and dynamic. Deubiquitination, the reverse process, is catalyzed through the action of enzymes referred to as isopeptidases or deubiquitinating enzymes (DUBs). This group of enzymes is collectively responsible for maintaining adequate pools of free ubiquitin and regulating the ubiquitination status of cellular proteins. The class of DUBs referred to as the ubiquitin-specific proteases (USP) family functions endoproteolytically to cleave Ub chains from a wide range of protein substrates. USP2a deubiquitinates fatty acid synthase (FASN) which has recently been identified as an emerging oncology target. To identify inhibitors of USP2a a cell-free assay was employed.
# The reporter enzyme chosen is phospholipase A2 (PLA2), which has an absolute requirement for a free amino terminus. Thus, fusion of a UBL to the N-terminus of PLA2 inactivates PLA2. When the UBL-PLA2 reporter enzyme is cleaved by USP2, the activated reporter can subsequently act on its substrate, which is the commercially available NBD C6-HPC (Invitrogen). Thus, this coupled assay gives a fluorescent read-out, which is generated through the cleavage of the PLA2 reporter enzyme. The assay, developed by Progenra, Inc. uses Ub-PLA2 and USP2a at near equal and low (nM) amounts and has been licensed for sale by LifeSensors, Inc. as the Ub-IsoPro1 kit.
# NCGC Assay Protocol Summary:
# The assay buffer, prepared fresh at the day of the assay, contains 20mM Tris-HCl pH 8.0, 2mM CaCl2, 2mM beta-Mercaptoethanol, 0.1% DMSO. 3ul of 40nM (20nM final) USP2 core, which is stored on ice, is dispensed into a medium-binding black solid Kalypsys 1,536 well plate using the Kalypsys dispenser. The assay plate is then pinned with 23nL compound with the Kalypsys pintool in columns 5-48. The controls are pinned as follows: column 1&2 two-fold dilutions of 2M NEM in duplicate; column 3 DMSO; column 4 2M NEM (final concentration 38.2mM). The assay plate is incubated at RT for 30min. Subsequently, 3uL of 40nM (20nM final) Ub-PLA2 and 40uM (20uM final) NBD C6-HPC (stored on ice and protected from light) were dispensed into the plate using the Kalypsys dispenser. Plates were read immediately (0 Hour) on an Envision (Perkin Elmer) plate reader using the following wavelengths Ex 460nm /Em 535nm. Then, the assay plates were incubated for 2.5 hours and read again on the Envision using the same settings
# Data were normalized to the to AC100 inhibition (NEM). Concentration-response curves were fitted to the normalized data and the concentration-response curves were then classified based on curve quality (r2), response magnitude and degree of measured activity. The time zero reading was used to flag fluorescence artifacts.
# Keywords: ubiquitination, deubiquitination, proteases, profluorescent, MLSMR, MLSCN, NIH Roadmap, qHTS, NCGC
# Potency is read from the fitted curve at half-maximal effect; tags tell the direction and shape of the fitted curve.
# Sequence of UniProt O75604 (O75604 whole entry, looked up): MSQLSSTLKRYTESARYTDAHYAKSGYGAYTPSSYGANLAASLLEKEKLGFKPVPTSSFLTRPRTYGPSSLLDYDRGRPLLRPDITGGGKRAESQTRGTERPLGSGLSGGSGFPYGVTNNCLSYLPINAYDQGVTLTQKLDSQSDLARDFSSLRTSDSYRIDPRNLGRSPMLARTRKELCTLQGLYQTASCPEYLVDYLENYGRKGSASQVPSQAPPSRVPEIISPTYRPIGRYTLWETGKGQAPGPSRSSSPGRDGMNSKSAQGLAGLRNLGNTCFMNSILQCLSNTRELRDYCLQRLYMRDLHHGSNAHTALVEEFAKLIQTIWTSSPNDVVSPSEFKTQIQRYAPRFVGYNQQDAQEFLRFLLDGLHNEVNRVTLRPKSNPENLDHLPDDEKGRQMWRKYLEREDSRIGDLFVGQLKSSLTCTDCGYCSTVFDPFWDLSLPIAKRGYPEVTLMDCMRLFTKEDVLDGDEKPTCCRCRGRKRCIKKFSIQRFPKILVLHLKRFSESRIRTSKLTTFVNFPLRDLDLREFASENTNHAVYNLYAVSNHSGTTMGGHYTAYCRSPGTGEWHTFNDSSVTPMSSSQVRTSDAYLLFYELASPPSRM
SMILES,"activity change, negative = inhibition",Potency
CCCN1CCc2cccc3c2[C@@H]1Cc1ccc(O)c(O)c1-3,inactive: 2.97%,
Oc1ccc2c3c1O[C@@H]1c4[nH]c5c(c4C[C@@]4(O)[C@@H](C2)N(CC2CC2)CC[C@]314)C[C@]1(O)[C@@H]2Cc3ccc(O)c4c3[C@@]1(CCN2CC1CC1)[C@H]5O4,,"inconclusive: 31.6 µM [inhibitor, single point]"
CN(N=O)c1cc(O)ccc1O,,active: 15.8 µM
COc1ccc2c(c[n+](C)c3c4cc5c(cc4ccc23)OCO5)c1OC,,"inconclusive: 25.1 µM [inhibitor, single point]"
Cc1nn(-c2ccccc2)c2c1CC1(C(=O)N(C)C(=O)N(C)C1=O)C1CCCCN21 (stereo not given),inactive: 12%,
CCCCn1c(=O)c(C(=O)Nc2ccccc2S(N)(=O)=O)c(O)c2ccccc21,,"inconclusive: 25.1 µM [inhibitor, single point]"
C=C(C)[C@H]1CC[C@]2(C(=O)O)CC[C@]3(C)[C@@H](CC[C@H]4[C@@]5(C)CC[C@@H](O)C(C)(C)[C@@H]5CC[C@@]43C)[C@H]12,,"inconclusive: 12.6 µM [inhibitor, single point]"
C[C@H](N)c1cccc(Cl)c1Cl,inactive: 0.606%,
COc1c2c(c(CC=C(C)C)c3oc(=O)c(-c4ccc(O)cc4)c(O)c13)OC(C)(C)C=C2,,"inconclusive: 2 µM [inhibitor, full curve]"
CC(C)CCNC(=O)c1c(N)n(CC2CCCO2)c2nc3ccccc3nc12 (stereo not given),,"inconclusive: 12.6 µM [inhibitor, partial curve]"
C[C@@H]1O[C@H]1P(=O)(O)O,inactive: 3%,
COc1cc(C=C(C#N)C#N)cc(O)c1O,,"inconclusive: 15.8 µM [inhibitor, partial curve]"
NS(=O)(=O)c1ccc(N=Cc2c(O)n(C3CCCCC3)c(=O)n(C3CCCCC3)c2=O)cc1,,"inconclusive: 12.6 µM [inhibitor, single point]"
CN(CC1COc2ccccc2O1)c1nc(-c2cccnc2)nc2ccccc12 (stereo not given),,"inconclusive: 25.1 µM [inhibitor, single point]"
Clc1ccc(CO/N=C(\Cn2ccnc2)c2ccc(Cl)cc2Cl)c(Cl)c1,,"inconclusive: 25.1 µM [inhibitor, partial curve]"
CCOCC(=O)NC1CCSC1=O (stereo not given),,"inconclusive: 12.6 µM [inhibitor, single point]"
COC(=O)N1CCC2(CCCN(C)C2)CC1,,"inconclusive: 12.6 µM [inhibitor, partial curve]"
c1ccc2c(CCNC3=NCCC3)c[nH]c2c1,,"inconclusive: 3.16 µM [inhibitor, single point]"

SMILES,"activity change, negative = inhibition",Potency
N#CC(C#N)=Cc1cc(O)c(O)c(O)c1,,"inconclusive: 25.1 µM [inhibitor, partial curve]"
N[C@@H](Cc1cc(O)c(O)cc1O)C(=O)O,,active: 6.31 µM
Clc1ccc(COC(Cn2ccnc2)c2ccc(Cl)cc2Cl)cc1 (stereo not given),,"inconclusive: 20 µM [inhibitor, single point]"
CN1C[C@@H](CS(=O)(=O)N(C)C)C[C@H]2c3cccc4c3c(cn4C)C[C@@H]21,inactive: 8.17%,
COc1cc(C2C(C#N)=C(N)OC3=C2C(=O)CC(C)(C)C3)ccc1OC(=O)N1CCOCC1 (stereo not given),,"inconclusive: 15.8 µM [inhibitor, partial curve]"
CCCCCCn1c(O)c(C=NC2CCCCC2N)c(=O)[nH]c1=O (stereo not given),inactive: 4.65%,
c1ccc(-c2ccc(C(c3ccccc3)n3ccnc3)cc2)cc1 (stereo not given),,"inconclusive: 25.1 µM [inhibitor, single point]"
CC(=O)c1c(O)c(C)c(O)c(Cc2c(O)c3c(c(C(=O)/C=C\c4ccccc4)c2O)OC(C)(C)C=C3)c1O,,"inconclusive: 31.6 µM [inhibitor, single point]"
O[N+]1=CC=CCC1=S.On1ccccc1=S.[Zn],,"inconclusive: 2 µM [inhibitor, full curve]"
Cc1cc(OCc2nn[nH]n2)c2c3c(c(=O)oc2c1)CCCC3,,"inconclusive: 20 µM [inhibitor, single point]"
O=C(OC1Cc2c(O)cc(O)cc2OC1c1cc(O)c(O)c(O)c1)c1cc(O)c(O)c(O)c1 (stereo not given),,"inconclusive: 25.1 µM [inhibitor, single point]"
CCOC(=O)C1=C(C)OC(N)=C(C#N)C12C(=O)Nc1ccc(C)cc12 (stereo not given),,"inconclusive: 25.1 µM [inhibitor, single point]"
CN1CCCC2(CCN(C(=O)c3ccncc3)CC2)C1,,"inconclusive: 10 µM [inhibitor, single point]"
CCCCC/C=C\C/C=C\C/C=C\C/C=C\CCCC(=O)O,,"inconclusive: 3.16 µM [inhibitor, full curve]"
CCCCOc1ccc(CC2C(=O)N(C)C(=O)N(C)C2=O)cc1,,"inconclusive: 2 µM [inhibitor, partial curve]"
Oc1ccc(Cl)cc1Cc1cc(Cl)ccc1O,,"inconclusive: 25.1 µM [inhibitor, single point]"
Clc1ccc(COC(Cn2ccnc2)c2ccc(Cl)cc2Cl)c(Cl)c1 (stereo not given),,"inconclusive: 25.1 µM [inhibitor, single point]"
